Data as given in PMC6451091.
This is one part of the list. For part of these data: At the low end of the ranking the order means little. For part of these data: The protein was read in a cell extract, so binding may be indirect.

What was measured:
Conditions in all cases: 20 mM HEPES pH 7.9, 100 mM NaCl, 1 mM DTT, 0.2 mg/mL BSA, 0.02% Triton X-100, 2% milk, 0.4 mg/mL salmon testes DNA; 1 h; temperature not stated; high values mean tight binding; double strand, one strand shown; sequences stand for … in GCCTAGCAC…GTGCTAGGTCTTGATTCGCTTGACGCTGCTG
PU.1 (IVT) = PU.1 (IVT) (UniProt P17947); test: protein-binding microarray (PBM)
[1] = biological target: PU.1 (endogenous, THP-1 nuclear extract) (UniProt P17947); test: nuclear extract protein-binding microarray (nextPBM)
[2] = biological target: T1, FLI1 (endogenous, THP-1 nuclear extract) (UniProt Q01543); test: as above
T1 sequence: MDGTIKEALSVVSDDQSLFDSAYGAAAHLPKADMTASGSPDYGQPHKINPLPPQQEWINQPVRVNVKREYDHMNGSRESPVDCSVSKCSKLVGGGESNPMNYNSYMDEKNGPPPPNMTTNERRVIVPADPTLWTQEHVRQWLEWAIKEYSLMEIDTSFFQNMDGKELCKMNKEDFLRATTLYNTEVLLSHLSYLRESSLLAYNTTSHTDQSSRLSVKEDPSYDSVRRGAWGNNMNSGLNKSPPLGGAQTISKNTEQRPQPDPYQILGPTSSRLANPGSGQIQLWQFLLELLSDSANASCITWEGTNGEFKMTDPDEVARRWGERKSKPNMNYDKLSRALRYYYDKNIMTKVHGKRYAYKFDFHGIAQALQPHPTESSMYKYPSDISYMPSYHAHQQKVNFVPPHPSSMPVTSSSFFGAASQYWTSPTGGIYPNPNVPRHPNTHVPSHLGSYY

Q: Which binding signal (PU.1 (IVT)) does the source give for AGATTAAGGAAGTGAGAATC here?
A: Its binding signal is 4.98 z-score.

Q: And the binding signal [1]?
A: The binding signal was 5.79 z-score.

Q: What about the binding signal [2] of the same sequence?
A: The binding signal was 2.72 z-score.

Q: Which binding signal (PU.1 (IVT)) does the source give for TAAAGGAGGAAGTGAAGAAG here?
A: Its binding signal is 5.7 z-score.

Q: And the binding signal [1]?
A: The binding signal was 6.06 z-score.

Q: What about the binding signal [2] of the same sequence?
A: The binding signal was 3.01 z-score.

Q: Which results are given for AGAGGAAGGAAGTGAGTTTG?
A: binding signal (PU.1 (IVT)): 2.77 z-score; binding signal [1]: 2.76 z-score; binding signal [2]: 2.38 z-score

Q: What does the source list for AGGAAGGGGAAGTTCAGTGA?
A: binding signal (PU.1 (IVT)): 5.81 z-score; binding signal [1]: 6.34 z-score; binding signal [2]: 2.84 z-score

Q: Which results are given for CTGCAGAGGAAGTGGACCAC?
A: binding signal (PU.1 (IVT)): 2.66 z-score; binding signal [1]: 2.86 z-score; binding signal [2]: 2.71 z-score

Q: Which results are given for AAAAAGAAGAAGTGGGGCTT?
A: binding signal (PU.1 (IVT)): 4.26 z-score; binding signal [1]: 4.54 z-score; binding signal [2]: 0.99 z-score

Q: TTCAGGGGGAAGTACTGTGT was tested. Which binding signal (PU.1 (IVT)) did it give?
A: The binding signal was 3.94 z-score.

Q: And the binding signal [1]?
A: The binding signal was 3.75 z-score.

Q: What about the binding signal [2] of the same sequence?
A: Its binding signal is 1.79 z-score.

Q: Which results are given for AGATTGGGGAAGTGACTCTA?
A: binding signal (PU.1 (IVT)): 5.5 z-score; binding signal [1]: 6.43 z-score; binding signal [2]: 2.67 z-score

Q: Which results are given for AAAAAAAGGAAGTGGTAAAC?
A: binding signal (PU.1 (IVT)): 6.51 z-score; binding signal [1]: 6.53 z-score; binding signal [2]: 2.86 z-score

Q: Which binding signal (PU.1 (IVT)) does the source give for TGAAACAGGAAGTCTGACAG here?
A: Its binding signal is 5.54 z-score.

Q: What about the binding signal [1] of the same sequence?
A: Its binding signal is 6.27 z-score.

Q: And the binding signal [2]?
A: The binding signal was 4.33 z-score.

Q: With AGAAAGAGGAAGTGCTGAGG as the sequence, how does the binding signal (PU.1 (IVT)) read?
A: The binding signal was 7.75 z-score.

Q: And the binding signal [1]?
A: The binding signal was 7.2 z-score.

Q: What about the binding signal [2] of the same sequence?
A: The binding signal was 3.79 z-score.

Q: AATAACAGGAAGTGGGTGCT was tested. Which binding signal (PU.1 (IVT)) did it give?
A: The binding signal was 6.25 z-score.

Q: What about the binding signal [1] of the same sequence?
A: Its binding signal is 6.5 z-score.

Q: And the binding signal [2]?
A: The binding signal was 5.08 z-score.

Q: TGAAAGTGGAAGTGCAACCA was tested. Which binding signal (PU.1 (IVT)) did it give?
A: The binding signal was 3.09 z-score.

Q: What about the binding signal [1] of the same sequence?
A: The binding signal was 3.01 z-score.

Q: What about the binding signal [2] of the same sequence?
A: Its binding signal is 1.26 z-score.

Q: With AAAAAAAGGAACTGGTTAGA as the sequence, how does the binding signal (PU.1 (IVT)) read?
A: Its binding signal is 4.93 z-score.

Q: And the binding signal [1]?
A: Its binding signal is 4.29 z-score.

Q: What about the binding signal [2] of the same sequence?
A: The binding signal was 1.44 z-score.

Q: For GATAAGAGGACGTCCTCTGT, which binding signal (PU.1 (IVT)) is on record?
A: The binding signal was -0.187 z-score.

Q: And the binding signal [1]?
A: Its binding signal is -0.261 z-score.

Q: What about the binding signal [2] of the same sequence?
A: Its binding signal is 0.158 z-score.

Q: For CGAAAAGGGAAGTCAGAGGC, which binding signal (PU.1 (IVT)) is on record?
A: Its binding signal is 5.26 z-score.

Q: What about the binding signal [1] of the same sequence?
A: Its binding signal is 5.84 z-score.

Q: And the binding signal [2]?
A: The binding signal was 2.24 z-score.

Q: Which binding signal (PU.1 (IVT)) does the source give for TAAAACAGGAAGTCCCATAG here?
A: Its binding signal is 6.97 z-score.

Q: What about the binding signal [1] of the same sequence?
A: The binding signal was 7.02 z-score.

Q: And the binding signal [2]?
A: Its binding signal is 4.63 z-score.

Q: Which results are given for GTTTTGAGGAAGTGGAGGTG?
A: binding signal (PU.1 (IVT)): 6.11 z-score; binding signal [1]: 6.44 z-score; binding signal [2]: 2.64 z-score

Q: How did the binding signal (PU.1 (IVT)) turn out when AAAAAAAGGAACTGAATCCA was run?
A: Its binding signal is 4.94 z-score.

Q: And the binding signal [1]?
A: Its binding signal is 4.82 z-score.

Q: And the binding signal [2]?
A: The binding signal was 1.7 z-score.

Q: Which binding signal (PU.1 (IVT)) does the source give for AAAAAAAGGAATTGGCTAGA here?
A: The binding signal was 1.77 z-score.

Q: And the binding signal [1]?
A: Its binding signal is 1.22 z-score.

Q: And the binding signal [2]?
A: Its binding signal is 0.432 z-score.

Q: Which binding signal (PU.1 (IVT)) does the source give for AAATAAAGGAACTGAATCTA here?
A: Its binding signal is 3.04 z-score.

Q: And the binding signal [1]?
A: The binding signal was 2.85 z-score.

Q: What about the binding signal [2] of the same sequence?
A: Its binding signal is 1.28 z-score.

Q: For CGAAAGGGGAACTGCTAAAC, which binding signal (PU.1 (IVT)) is on record?
A: The binding signal was 4.88 z-score.

Q: And the binding signal [1]?
A: Its binding signal is 5.4 z-score.

Q: What about the binding signal [2] of the same sequence?
A: The binding signal was 1.55 z-score.

Q: Which binding signal (PU.1 (IVT)) does the source give for AAAAAGAGGAACTCAATAAA here?
A: Its binding signal is 7.24 z-score.

Q: And the binding signal [1]?
A: The binding signal was 6.93 z-score.

Q: What about the binding signal [2] of the same sequence?
A: The binding signal was 2.52 z-score.

Q: Which results are given for GAATTAGGGAAGTGAACAAT?
A: binding signal (PU.1 (IVT)): 5.84 z-score; binding signal [1]: 6.48 z-score; binding signal [2]: 2.23 z-score

Q: What does the source list for GAAAAGAGGAAGTCCCATAG?
A: binding signal (PU.1 (IVT)): 7.76 z-score; binding signal [1]: 7.32 z-score; binding signal [2]: 3.97 z-score

Q: Which results are given for AGGAAGAGGAAATGATTTTA?
A: binding signal (PU.1 (IVT)): 3.77 z-score; binding signal [1]: 3.11 z-score; binding signal [2]: 3.1 z-score

Q: How did the binding signal (PU.1 (IVT)) turn out when GGAAACAGGAAGTGAGAGAG was run?
A: Its binding signal is 6.84 z-score.

Q: What about the binding signal [1] of the same sequence?
A: Its binding signal is 6.91 z-score.

Q: What about the binding signal [2] of the same sequence?
A: Its binding signal is 5.39 z-score.

Q: AAAAGGAGGAAGTGGGGGGA was tested. Which binding signal (PU.1 (IVT)) did it give?
A: Its binding signal is 6.01 z-score.

Q: And the binding signal [1]?
A: The binding signal was 6.4 z-score.

Q: And the binding signal [2]?
A: The binding signal was 2.96 z-score.

Q: For AGAAAGAGGAACTGCTTCAA, which binding signal (PU.1 (IVT)) is on record?
A: Its binding signal is 6.72 z-score.

Q: What about the binding signal [1] of the same sequence?
A: The binding signal was 6.91 z-score.

Q: What about the binding signal [2] of the same sequence?
A: Its binding signal is 2.53 z-score.

Q: GAAAGGAGGAAGTGATCATA was tested. Which binding signal (PU.1 (IVT)) did it give?
A: The binding signal was 6.14 z-score.

Q: What about the binding signal [1] of the same sequence?
A: The binding signal was 6.63 z-score.

Q: What about the binding signal [2] of the same sequence?
A: The binding signal was 3.21 z-score.

Q: Which binding signal (PU.1 (IVT)) does the source give for TGAAAGAGCAAGTGCAACCA here?
A: The binding signal was -0.271 z-score.

Q: What about the binding signal [1] of the same sequence?
A: Its binding signal is -0.442 z-score.

Q: What about the binding signal [2] of the same sequence?
A: Its binding signal is -0.628 z-score.

Q: Which binding signal (PU.1 (IVT)) does the source give for CCAAGGAGGAAGTAGAGAGA here?
A: Its binding signal is 5.18 z-score.

Q: What about the binding signal [1] of the same sequence?
A: The binding signal was 5.51 z-score.

Q: And the binding signal [2]?
A: Its binding signal is 2.63 z-score.

Q: With GTGTGGAGGAAGTGGGGTCT as the sequence, how does the binding signal (PU.1 (IVT)) read?
A: The binding signal was 2.86 z-score.

Q: And the binding signal [1]?
A: The binding signal was 2.92 z-score.

Q: And the binding signal [2]?
A: The binding signal was 2.31 z-score.

Q: With ACAAAAAGGAACTGTCCCCC as the sequence, how does the binding signal (PU.1 (IVT)) read?
A: The binding signal was 2.45 z-score.

Q: What about the binding signal [1] of the same sequence?
A: Its binding signal is 1.66 z-score.

Q: What about the binding signal [2] of the same sequence?
A: The binding signal was 1.19 z-score.

Q: Which results are given for GATAAGAGGAAGTGACACAA?
A: binding signal (PU.1 (IVT)): 6.19 z-score; binding signal [1]: 6.61 z-score; binding signal [2]: 2.94 z-score

Q: Which results are given for CAAATGAAGAACTGATGCGG?
A: binding signal (PU.1 (IVT)): 1.21 z-score; binding signal [1]: 1.08 z-score; binding signal [2]: -0.147 z-score

Q: With AAAAAGAGGAACTCCTCCCT as the sequence, how does the binding signal (PU.1 (IVT)) read?
A: Its binding signal is 7.49 z-score.

Q: What about the binding signal [1] of the same sequence?
A: The binding signal was 7.25 z-score.

Q: What about the binding signal [2] of the same sequence?
A: Its binding signal is 2.96 z-score.

Q: What does the source list for GAGAAGAGGAAGTGCCACAC?
A: binding signal (PU.1 (IVT)): 6.45 z-score; binding signal [1]: 6.72 z-score; binding signal [2]: 3.23 z-score

Q: How did the binding signal (PU.1 (IVT)) turn out when AAAATAAGGAAGTGTAAGTC was run?
A: Its binding signal is 6.51 z-score.

Q: What about the binding signal [1] of the same sequence?
A: The binding signal was 6.73 z-score.

Q: And the binding signal [2]?
A: The binding signal was 2.45 z-score.

Q: For CAAAAGAGGAACTCTTTGGT, which binding signal (PU.1 (IVT)) is on record?
A: Its binding signal is 7.01 z-score.

Q: And the binding signal [1]?
A: Its binding signal is 6.97 z-score.

Q: And the binding signal [2]?
A: The binding signal was 2.3 z-score.

Q: For TAAAAGAGGAAATGAGAAAC, which binding signal (PU.1 (IVT)) is on record?
A: Its binding signal is 5.33 z-score.

Q: And the binding signal [1]?
A: Its binding signal is 5.68 z-score.

Q: And the binding signal [2]?
A: Its binding signal is 3.01 z-score.

Q: With TCAGGAGGGAAGTGAAGAAA as the sequence, how does the binding signal (PU.1 (IVT)) read?
A: The binding signal was 2.65 z-score.

Q: And the binding signal [1]?
A: Its binding signal is 2.5 z-score.

Q: And the binding signal [2]?
A: The binding signal was 1.57 z-score.
